Where two headings read alike, the source gives them in different places. These are yes or no findings as the source states them, for the method shown. Some binding calls cover weakened binding; strength is not graded here.
B1: Tp0751 synthetic peptide p11 (peptide)
peptide: SIRRRLEVTFESHEVIHVRAVEDV
notes: Tp0751 (pallilysin), Treponema pallidum subsp. pallidum; shares its first 10 residues (with the arginine triplet) with p10; source: synthetic peptide; not shown: His6, N-terminal, kept
B2: Tp0751 synthetic peptide p4 (peptide)
peptide: GGAAQTHTQPPVQTAMRIALWNRA
notes: Tp0751 (pallilysin), Treponema pallidum subsp. pallidum; its central four residues PVQT (98-101) are printed; also called peptide 4; source: synthetic peptide; not shown: His6, N-terminal, kept
B3: Tp0751 synthetic peptide p6 (peptide)
peptide: QGALQHLLAGLWIQTEISPNSGDI
notes: Tp0751 (pallilysin), Treponema pallidum subsp. pallidum; its central four residues LWIQ (126-129) are printed; also called peptide 6; source: synthetic peptide; not shown: His6, N-terminal, kept
B4: Tp0751 synthetic peptide p10 (peptide)
peptide: RKTVSFLTRNTAISSIRRRLEVTF
notes: Tp0751 (pallilysin), Treponema pallidum subsp. pallidum; Its composition equals that of the printed scrambled peptide p10scr2; also called peptide 10; source: synthetic peptide; not shown: His6, N-terminal, kept

By UniProt entry, the sequences of proteins in these tests, tags left out. Where a name states a change or a piece, a line headed by the entry shows the natural chain unless it says otherwise.
UniProt P02452: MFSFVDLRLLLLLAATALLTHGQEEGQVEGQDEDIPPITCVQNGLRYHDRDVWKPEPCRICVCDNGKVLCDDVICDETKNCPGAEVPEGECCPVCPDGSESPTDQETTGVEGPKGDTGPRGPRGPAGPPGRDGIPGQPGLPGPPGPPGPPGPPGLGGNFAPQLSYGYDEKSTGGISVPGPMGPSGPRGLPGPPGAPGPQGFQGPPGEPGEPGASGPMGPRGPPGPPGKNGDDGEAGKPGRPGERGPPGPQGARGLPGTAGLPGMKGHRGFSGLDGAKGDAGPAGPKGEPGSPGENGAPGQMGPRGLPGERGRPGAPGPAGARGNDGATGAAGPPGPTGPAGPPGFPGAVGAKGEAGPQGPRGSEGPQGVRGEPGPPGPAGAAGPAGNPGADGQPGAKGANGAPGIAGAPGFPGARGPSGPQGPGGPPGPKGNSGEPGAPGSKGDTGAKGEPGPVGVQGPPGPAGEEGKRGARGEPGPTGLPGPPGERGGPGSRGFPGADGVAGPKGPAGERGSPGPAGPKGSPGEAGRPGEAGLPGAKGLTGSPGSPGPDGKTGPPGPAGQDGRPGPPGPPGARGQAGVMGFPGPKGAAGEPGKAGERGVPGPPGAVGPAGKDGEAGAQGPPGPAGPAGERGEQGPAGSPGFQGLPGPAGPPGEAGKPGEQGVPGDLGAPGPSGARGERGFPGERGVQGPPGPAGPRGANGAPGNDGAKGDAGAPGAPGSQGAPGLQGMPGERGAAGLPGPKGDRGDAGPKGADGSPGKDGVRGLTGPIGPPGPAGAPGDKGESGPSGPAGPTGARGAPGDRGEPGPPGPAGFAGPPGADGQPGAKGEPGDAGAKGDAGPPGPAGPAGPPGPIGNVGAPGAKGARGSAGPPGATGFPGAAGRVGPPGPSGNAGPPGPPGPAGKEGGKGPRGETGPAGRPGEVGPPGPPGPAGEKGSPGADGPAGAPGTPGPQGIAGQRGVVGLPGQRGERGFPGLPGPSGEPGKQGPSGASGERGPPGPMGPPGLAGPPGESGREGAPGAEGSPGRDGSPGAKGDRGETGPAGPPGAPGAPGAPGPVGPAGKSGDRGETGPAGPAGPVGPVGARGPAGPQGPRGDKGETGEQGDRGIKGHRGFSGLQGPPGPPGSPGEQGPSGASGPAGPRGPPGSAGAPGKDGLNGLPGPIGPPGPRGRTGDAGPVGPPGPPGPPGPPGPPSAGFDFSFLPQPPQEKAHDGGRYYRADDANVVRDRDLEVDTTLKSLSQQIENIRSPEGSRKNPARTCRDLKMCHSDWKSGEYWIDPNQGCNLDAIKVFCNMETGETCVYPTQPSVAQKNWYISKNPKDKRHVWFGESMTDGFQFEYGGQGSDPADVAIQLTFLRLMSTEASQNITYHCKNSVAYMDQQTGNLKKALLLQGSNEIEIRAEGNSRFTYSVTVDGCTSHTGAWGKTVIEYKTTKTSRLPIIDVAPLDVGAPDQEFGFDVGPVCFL

What was measured:
[1] = biological target: human collagen type I (human) (UniProt P02452); assay: ELISA; initial binding screen, single point: host protein immobilised in plate wells, His6-tagged synthetic peptide in solution; absorbance at 600 nm, three wells, two independent experiments; done as in refs 21, 22; both purified
[2] = biological target: human collagen type I (human) (UniProt P02452); assay: as above; remark: listed apart in the source

Row | Molecule | binding [1] | binding [2]
1 | Tp0751 synthetic peptide p8 (from UniProt O83732 144-167) | no binding | 
2 | B1 |  | binds
3 | B2 |  | binds
4 | B3 |  | binds
5 | B4 |  | no binding
